# From ChEMBL document CHEMBL1201862, “PubChem BioAssay data set” (2004)
# Tested on: NCI-H322M
# Test: DTP human tumour cell line panel, 48 h
row,SMILES,GI50
1,CC(=O)O[C@H]1C(=O)[C@@]2(C)[C@H]([C@H](OC(=O)C3CCCCC3)[C@]3(O)C[C@H](OC(=O)[C@H](O)[C@@H](NC(=O)OC(C)(C)C)c4ccccc4)C(C)=C1C3(C)C)[C@]1(OC(C)=O)CO[C@@H]1C[C@@H]2O,active: 0.0151 µM
2,Nc1cccc(/C=C/CN2CCN(CCOC(c3ccccc3)c3ccccc3)CC2)c1,inactive: 14.2 µM
3,CC(=O)OCC1OC(SC2=N/C(=C\c3ccc(Br)s3)C(=O)N2CN2CCOCC2)C(OC(C)=O)C(OC(C)=O)C1OC(C)=O (stereo unspecified),inactive: 17.2 µM
4,CC(C)(C)N1C(=O)[N-]/[N+](=C(/C(c2ccccc2)=[N+]2/[N-]C(=O)N(C(C)(C)C)C2=O)c2ccccc2)C1=O,inactive: > 100 µM
5,c1cc(-c2sc(-c3ccncc3)c(-c3ccncc3)c2-c2ccncc2)ccn1,inactive: 15.8 µM
6,CC1=NC2=Nc3nc(C)cc[n+]3CN2C=C1,inactive: > 100 µM
7,CN(C)CC/C(=N\Nc1ccc([N+](=O)[O-])cc1)c1ccccc1,inactive: 15.2 µM
8,Cc1nc(O)nc(CC(O)(c2ccccc2)c2ccccc2)c1-c1ccccc1,inactive: > 100 µM
9,CN(Cc1ccccc1)c1nc(=[N+](C)C)ss1,inactive: 63.5 µM
10,N#CC(N)c1ccc(OCCCCCCCCCCOc2ccc(C(N)C#N)cc2)cc1 (stereo unspecified),inactive: > 100 µM
11,CCOC(=O)c1ccc(N[C@@H]2c3cc4c(cc3C(c3cc(OC)c(O)c(OC)c3)[C@H]3C(=O)OCC32)OCO4)cc1 (stereo partly specified),inactive: 3.85 µM
12,COC(=O)c1cc(C)ccc1/C=C1\Cc2c(C)cc(C)cc2C1=O,inactive: > 73.6 µM
13,O=C(CC(=O)Nc1ccccc1)NNC(c1cc(/N=N/c2ccc(Br)cc2)ccc1O)P(O)O (stereo unspecified),inactive: 1.68 µM
14,COc1cccc(CCN2CCN(CCCc3ccccc3)CC2)c1,inactive: > 100 µM
15,O=C(O)CSc1ccc2nc3ccccc3c(O)c2c1,inactive: > 100 µM
16,Cc1nc2c(Br)cc(Br)cc2c(=O)n1-c1ccccc1N,inactive: > 100 µM
17,Cc1n[nH]c(=O)n1N=C(c1ccccc1)c1ccccc1,inactive: > 100 µM
18,COc1cc(/N=N/N(C)C)c(C(C)c2c3cc(OC)c(OC)cc3cc[n+]2C)cc1OC (stereo unspecified),inactive: > 100 µM
19,COc1cc(Br)c(OC)c2c(OC)cc(C)cc12,inactive: > 100 µM
20,O=[N+]([O-])C(=C(Sc1ccccc1)Sc1ccccc1)C(Cl)=C(Cl)Cl,inactive: 9.44 µM
21,CCCCCCCC1c2cc3nc(cc4[nH]c(cc5nc(cc([nH]2)[C@@]1(C)CC(=O)N(C)C)C(C)=C5CCC(=O)O)c(CCC(=O)O)c4C)C=C3C (stereo partly specified),inactive: 38.8 µM
22,C(#CP(c1ccccc1)c1ccccc1)P(C#CP(c1ccccc1)c1ccccc1)c1ccccc1,inactive: > 100 µM

row,SMILES,GI50
1,CCCCCCCCCCCCCCCCOP(=O)(O)Oc1ccc(/C=C\c2ccc(OP(=O)(O)OCCCCCCCCCCCCCCCC)cc2)cc1,inactive: 67.6 µM
2,c1ccc(N2N=C3N(c4ccccc4)C2N3c2ccccc2)cc1,inactive: 37.6 µM
3,COc1cccc2c(NNc3ccc(Cl)cc3)c3ccc([N+](=O)[O-])cc3nc12,inactive: 16.1 µM
4,O=C(O)CN1CCCC(Cc2c[nH]c3ccccc23)C1 (stereo unspecified),inactive: > 100 µM
5,C=CCN(CCN(CC=C)S(=O)(=O)c1ccc(C)cc1)S(=O)(=O)c1ccc(C)cc1,inactive: > 100 µM
6,CCOc1ccc2c(c1)/C(=C(\C(Cl)=C(Cl)Cl)[N+](=O)[O-])N2,inactive: > 100 µM
7,Cc1[nH]c(=O)[nH]c(=O)c1/C=C/C(=O)NC(CO)C[S+]([O-])Cc1ccccc1 (stereo unspecified),inactive: > 276 µM
8,COc1ccc(OC)c(NC(=O)C(=O)C(C(C)=O)c2nc3ccc(Cl)cc3nc2O)c1 (stereo unspecified),inactive: > 50 µM
9,NC(=O)NC(=O)C1CCCCC1C(=O)O (stereo unspecified),inactive: > 100 µM
10,COC(=O)C1CCN(C(=O)OC(C)(C)C)CC1,inactive: > 100 µM
11,O=C1C[C@@H](Sc2ccccc2)C2(OCCO2)C2ON3CCCC[C@H]3[C@H]12 (stereo partly specified),inactive: 14.3 µM
12,CCCCCCCCCC[C@@H](OC(C)=O)[C@@H]1CC[C@@H]([C@@H]2CC[C@@H]([C@@H](O)CC#C/C=C/CCCCCCC[C@@]3(Sc4ccccc4)C[C@H](C)OC3=O)O2)O1,inactive: > 10 µM
13,COc1cccc2c1C(=O)c1c(O)c3c(c(O)c1C2=O)C[C@@](O)(/C(C)=N\O)C[C@@H]3OC1CC(N)C(O)C(C)O1 (stereo partly specified),inactive: 3.67 µM
14,CCCC[S+]([O-])CCC(N)C(=O)O (stereo unspecified),inactive: > 100 µM
15,O=C(Nc1cccc2ccccc12)c1cc2ccccc2oc1=O,inactive: > 100 µM
16,CCN(CC)CCOC(=O)CCN1CC2CCC(CC2)C1,inactive: > 100 µM
17,COC(=O)N1CC[C@@H]2CCC=C(c3cccc4c3OCO4)[C@@H]21,inactive: > 100 µM
18,COC1CC(OC2C(C)OC(OC3C(C)OC(OC4C(O)CC(O[C@H]5CC[C@@]6(C)C(=CC[C@]7(O)[C@@H]6C[C@@H](OC(C)=O)[C@@]6(C)[C@]7(O)CC[C@@]6(O)C(C)=O)C5)OC4C)CC3OC)CC2OC)OC(C)C1O (stereo partly specified),inactive: > 12.5 µM
19,CCc1[nH]c(=O)c2oc3cc4ccccc4cc3c2c1C(=O)O,inactive: > 10 µM
20,C/C(C[n+]1ccccc1)=N\N=C(N)N,inactive: > 100 µM
21,Nc1ccn(CCCC(c2ccccc2)P(=O)(O)O)c(=O)n1 (stereo unspecified),inactive: > 100 µM
22,CC(=O)NCc1nc(C#N)c(N)o1,inactive: > 100 µM

row,SMILES,GI50
1,COC1=CC(=O)C2(C=C1OC)OC[C@H]1Oc3c(ccc4c3C=CC(C)(C)O4)C(=O)[C@H]12 (stereo partly specified),inactive: 95.7 µM
2,COc1cc([C@@H]2c3cc4c(cc3[C@@H](NCCNCCO)[C@H]3COC(=O)[C@H]23)OCO4)cc(OC)c1O,inactive: 9.51 µM
3,O=C(CC(=O)c1ccc([N+](=O)[O-])cc1)C(=O)Nc1nccs1,inactive: > 100 µM
4,CC(C)(CO)CNc1nc(N)nc(Cl)c1/C=N/O,inactive: 66.7 µM
5,C/C(=N/NC(=O)C[n+]1ccccc1)C(CN(CC(C)C)CC(C)C)C(=O)Nc1ccc(C)cc1C (stereo unspecified),inactive: > 100 µM
6,O=C1CCSCCC(=O)Nc2ccccc2N1,inactive: > 100 µM
7,COc1cc2c(cc1OC)CCN=C2,inactive: > 100 µM
8,COC(=O)c1cc2c(cc1CC(Cc1ccc3c(c1)CCCC3)C(=O)OC)CCCC2 (stereo unspecified),inactive: > 100 µM
9,COc1cc(C2c3cc4c(cc3[C@H](NC(=O)c3cccs3)C3COC(=O)[C@H]23)OCO4)cc(OC)c1OC (stereo partly specified),active: < 0.01 µM
10,CC(C)(c1ccc(OC#N)cc1)c1ccc(OC#N)cc1,inactive: > 100 µM
11,N#CC(NNC(=O)Cc1ccccc1)c1ccc([N+](=O)[O-])cc1 (stereo unspecified),inactive: > 100 µM
12,Cc1cc(C)cc(NC(=O)CCC(=O)C2CCC/C2=N\NC(=O)C(=O)NN)c1 (stereo unspecified),inactive: > 100 µM
13,O=Cc1ccc(-c2nccc3c2[nH]c2ccccc23)o1,inactive: > 91.2 µM
14,COc1cc(/C=N/N=C(\N)NO)c(Cl)cc1O,inactive: 11.7 µM
15,NS(=O)(=O)c1ccc(/N=N/c2ncccc2O)cc1,inactive: > 100 µM
16,Cc1c(C(=O)CC(=O)C(=O)Nc2cccc(C(F)(F)F)c2)[n+]([O-])c2ccccc2[n+]1[O-],inactive: 2.69 µM
17,NC(=O)NNCc1c(-c2ccccc2)no[n+]1[O-],inactive: > 100 µM
18,Cc1ccc(S(=O)(=O)NC(=O)NC(Cc2ccc(O)cc2)C(=O)O)cc1 (stereo unspecified),inactive: > 100 µM
19,Cc1[nH]c2ccccc2c1C1Cc2ccccc2N1C(=O)/C(Cl)=C/c1ccccc1 (stereo unspecified),inactive: > 100 µM
20,O=c1ccn(C2OC(CO)C(O)C2[Se]c2ccccc2)c(=O)[nH]1 (stereo unspecified),inactive: > 100 µM
21,Cc1[nH]c2ccccc2c1C(=O)/C=C/c1ccccc1O,inactive: > 100 µM
22,CCC(c1ccc2cc(O)ccc2c1)C(C)(C)C(=O)O (stereo unspecified),inactive: > 100 µM

row,SMILES,GI50
1,COC(=O)C1=C(O)C(C(=O)OC)[C@]2(O)[C@H](C(=O)OC)[C@H]1C[C@@H](c1ccc(OC)c(OC)c1)[C@H]2C(=O)OC (stereo partly specified),inactive: 57.3 µM
2,O=C(CC1(O)C(=O)Nc2c(Cl)ccc(Cl)c21)c1ccc2ccccc2c1 (stereo unspecified),inactive: 18.8 µM
3,CC1(C)NC(=O)C(NC(=O)C(CC(=O)OCc2ccccc2)NC(=O)OCc2ccccc2)CCCCNC(=O)CCNC1=O (stereo unspecified) (Cbz-D(OBn)K[Aib][βAla]; lactam 2-C; configuration not given here),inactive: > 100 µM
4,N#CC1(Cc2ccccc2)CCCCN1C(=O)c1ccccc1 (stereo unspecified),inactive: > 100 µM
5,COC(=O)CCC1(C)C2CCC1(C)/C(=N/O)C2 (stereo unspecified),inactive: > 100 µM
6,NC1=NN(c2ccccc2)C(=O)C1C(=O)C(=O)Nc1ccc(Cl)cc1 (stereo unspecified),inactive: > 100 µM
7,COC(=O)c1cc2c(c3c1CC(Cc1ccccc1)C3=O)CCC2 (stereo unspecified),inactive: 81.3 µM
8,N#CC1(N2CCCC2)CCC2(CC1)OCCO2,inactive: > 100 µM
9,CC1=C[C@@H](C)C[C@]2(C)CC[C@H](O2)[C@]23CC[C@](CO)(C[C@H](O2)[C@@H]2O[C@@](C)(CC2=O)[C@@H](O)[C@H]2CC[C@@]4(CCC[C@@H](O4)[C@H](C)C(=O)O[C@H]4C[C@H]([C@]5(O)OCC[C@H](C)[C@@H]5O)O[C@H]4C=C1)O2)O3,active: 0.279 µM
10,CCn1c(=O)ccc2ccc(N(CCO)CCO)nc21,inactive: > 100 µM
11,c1ccc(CCc2cccnc2)nc1,inactive: > 100 µM
12,CCN1N=CSC12C(=O)N(c1ccccc1)C(=O)N2c1ccccc1 (stereo unspecified),inactive: > 100 µM
13,COc1cc2c[n+](C)c3c4cc(OC)c(OCc5ccccc5)cc4c(OCc4ccccc4)cc3c2cc1OC,inactive: 21.6 µM
14,C=C1C(=O)OC2C=C(CCC(C)=O)C(C)C(OC(C)=O)CC12 (stereo unspecified),inactive: 17.7 µM
15,C=CCNc1nc2c(s1)C(=O)c1ccccc1C2=O,inactive: 14.6 µM
16,COC(=O)C1(C(=O)OC)CC2c3c(c4ccccc4n3C)CC(C1=O)N2Cc1ccccc1 (stereo unspecified),inactive: > 100 µM
17,CC(C)(C)C1CCC2c3c([nH]c4ccccc34)C3C(=O)N(c4cccc([N+](=O)[O-])c4)C(=O)C3C2C1 (stereo unspecified),inactive: 21.9 µM
18,COc1ccc(CNc2cc(OC)cc(OC)c2)cc1,inactive: 57.8 µM
19,O=C(O)CN(c1ccccc1)S(=O)(=O)c1ccc([N+](=O)[O-])cc1,inactive: > 100 µM
20,CN(C)c1nc2oc(-c3ccccc3)c(-c3ccccc3)c2c2nncn12,inactive: > 100 µM

#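 Briefly, cells in 96-well plates were exposed to five compound concentrations for 48 h, and endpoints were estimated by linear interpolation. GI50: concentration for 50% inhibition of growth.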 Active and inactive are the calls of the source. Rule as the data show it: active = GI50 up to about 1.1 µM and inactive = higher. Bridge positions count the residues as written; N and C are the ends. Square brackets hold non-standard residues; d marks the D form. Peptide text beside a SMILES is read from it. * marks the point of attachment. Cbz = O=C(OCc1ccccc1)*; Aib = CC(C)(N)C(=O)O; OBn = c1ccc(CO*)cc1; βAla = NCCC(=O)O
